# Measurements: the supplement of paper PMC3334620
# Over roughly 33,000 sequences, “E-score (-0.5 to 0.5)” has its median near -0.021; the highest 2% begin near 0.32. The list shows a part of the results.
# Target: T1, Zap1 (UniProt P47043)
# T1 sequence: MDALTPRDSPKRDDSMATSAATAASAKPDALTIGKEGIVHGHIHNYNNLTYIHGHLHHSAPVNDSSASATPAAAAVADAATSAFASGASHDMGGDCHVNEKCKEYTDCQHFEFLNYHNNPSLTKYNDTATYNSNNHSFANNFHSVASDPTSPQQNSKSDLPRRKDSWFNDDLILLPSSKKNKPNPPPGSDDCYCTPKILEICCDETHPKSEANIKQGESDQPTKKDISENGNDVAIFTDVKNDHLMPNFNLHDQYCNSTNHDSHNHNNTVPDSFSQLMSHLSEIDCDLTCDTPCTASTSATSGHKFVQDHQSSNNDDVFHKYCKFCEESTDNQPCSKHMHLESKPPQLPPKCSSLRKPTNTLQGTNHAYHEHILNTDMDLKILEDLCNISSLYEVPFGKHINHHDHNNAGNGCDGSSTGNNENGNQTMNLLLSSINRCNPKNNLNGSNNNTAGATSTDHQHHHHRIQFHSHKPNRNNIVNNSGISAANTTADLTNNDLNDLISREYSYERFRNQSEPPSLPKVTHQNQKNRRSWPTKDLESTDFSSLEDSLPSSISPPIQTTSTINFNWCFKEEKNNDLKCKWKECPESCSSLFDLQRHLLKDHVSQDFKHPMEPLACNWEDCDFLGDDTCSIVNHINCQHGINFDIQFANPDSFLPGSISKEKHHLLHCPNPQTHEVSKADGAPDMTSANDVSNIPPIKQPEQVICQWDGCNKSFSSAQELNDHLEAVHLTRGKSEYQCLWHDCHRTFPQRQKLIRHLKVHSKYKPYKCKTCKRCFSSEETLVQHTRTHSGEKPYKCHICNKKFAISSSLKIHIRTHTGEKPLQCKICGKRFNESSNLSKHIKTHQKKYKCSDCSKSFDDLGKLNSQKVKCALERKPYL
# Assay: PBM E-score (8-mer binding enrichment) (E-score (-0.5 to 0.5)); higher = stronger / more preferred TF binding; most listed sequences are background and not binding sites
# Details: protein concentration: 200 nM; construct: GST-full length
# Experimental: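 Universal 'all 10-mer' protein binding microarrays (Agilent AMADID 015681) probed with GST-tagged S. cerevisiae TFs (full-length or DBD) made by in vitro transcription/translation (PURExpress), about 100-200 nM. Bound TF was detected with fluorescent anti-GST. Each ungapped 8-mer (which stands for itself and its reverse complement) is scored by the PBM enrichment score (E-score), a modified Wilcoxon-Mann-Whitney statistic from -0.5 to +0.5, computed with the Universal PBM Analysis Suite. Scale: above 0.35 generally sequence-specific binding.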
row,Sequence,PBM E-score
1,CACTTGAC,-0.148
2,GGGCACGA,-0.196
3,AAGAGCCG,-0.248
4,CGGTCCAC,0.0093
5,GCCCCGGC,-0.251
6,AGAGACGC,-0.176
7,CGGTTGAA,0.221
8,GCTATGCA,-0.101
9,ATCGGAGG,-0.139
10,ACATGCGG,-0.0584
11,AGTGGAGG,-0.0201
12,ACGCCGTG,-0.0258
13,ACTGTAAT,-0.0954
14,GTACAGGA,0.0673
15,ATTCTCAC,0.0449
16,CTAGAGCA,-0.219
17,ATCTACTC,-0.105
18,AACAGTGT,-0.111
19,CGCGACAA,0.181
20,AGCCACAT,-0.00209
21,CCCATTTA,0.194
22,CGACGATC,0.0406
23,CACAAGCC,-0.117
24,ACGTCACT,-0.246
25,AGCATAGA,-0.0758

row,Sequence,PBM E-score
1,ATGCCCGA,-0.235
2,CTCACTTC,-0.247
3,GATTTGGC,-0.235
4,CCTCTCGC,-0.108
5,ATCGCAAT,0.078
6,TAATATTA,0.253
7,CCACATAA,0.0331
8,CGGCGCAA,0.00408
9,TAGACCTA,-0.125
10,CGTCAAGA,0.0774
11,GCGCGAGA,-0.0112
12,CTTCTTTC,-0.18
13,CTCGGATA,-0.00056
14,GCTTAAGC,-0.0187
15,ATGGGGTC,0.284
16,TGAGGTAA,0.285
17,CGTAAACC,0.244
18,CGAGGGCC,-0.0851
19,AAAGGAGG,-0.123
20,CAATAATC,0.173
21,ATGATCAT,0.297
22,CATAGACG,-0.0348
23,ACGAACGT,-0.0259
24,GATACACC,0.13
25,AGGCCGGA,-0.132

row,Sequence,PBM E-score
1,GAAGTCTC,-0.277
2,CGGAAACA,0.0399
3,AGCCGTCA,0.0543
4,CGTACCAG,-0.0696
5,TTGGACAA,0.0638
6,ATGTACAT,0.244
7,AACCATGG,0.194
8,AGCCACGG,-0.174
9,ATGGTAAT,0.239
10,AGATCGTA,-0.105
11,ACGCACGC,-0.149
12,CGTAGCCA,-0.0918
13,CAGTGCAG,-0.248
14,CTAGGTGA,-0.196
15,GCGCTTGA,0.00852
16,AAACCTGA,0.138
17,ACTGAAGG,-0.0723
18,ATATTACA,0.207
19,AATATAAA,0.152
20,GACATCCC,-0.0296
21,AGTCTAGC,-0.25
22,GGCAGAAC,-0.172
23,CTTGGTAA,0.197
24,CGGTTGGC,0.186
25,GAATCGTC,-0.149

row,Sequence,PBM E-score
1,CTCAACAA,0.166
2,ATTCGAGG,0.0202
3,ATCTTTGG,0.0889
4,GATCCTAA,-0.0546
5,CCAGAGGG,0.16
6,AGATATGG,-0.0835
7,AAAGCCAA,-0.0818
8,CCCTGAAA,0.229
9,CCTGTAAA,0.0433
10,GATCGGGC,-0.22
11,AGTTTCCC,-0.215
12,CCACGAGC,-0.182
13,ACTTTTAA,0.0875
14,CGCGAAGA,0.0175
15,ACTGCGGA,-0.116
16,ACCGCGCT,0.0454
17,AGGAACGA,-0.259
18,ACTCAGCT,-0.0584
19,ATCTGCAA,-0.12
20,CCGACTGC,-0.199
21,ACTCTCGC,0.0355
22,CAGACTTC,-0.0822
23,GCAGACAA,-0.0322
24,AGGAGGTA,0.0936
25,AGCACGCC,-0.175

row,Sequence,PBM E-score
1,AGACCCAC,0.252
2,ATTTTAGA,-0.0093
3,GGTCCAAA,0.0248
4,ATGGGTTA,0.455
5,GGCCCGAA,-0.0968
6,AGAGAGAT,-0.0814
7,CCGCTTCA,-0.134
8,AGACCGAC,-0.119
9,GCCACCGA,-0.108
10,AGCACTGA,-0.0986
11,ACGTTATC,-0.101
12,ATCCTGAC,0.0474
13,AACAGCCT,0.0412
14,CCCAGGGA,-0.113
15,CGAAATCC,-0.0787
16,TGGAGTAA,0.114
17,CGCTAACA,0.00453
18,ATATTTTA,0.189
19,TCTTGCAA,0.0407
20,CGAGTATA,0.0115
21,ACATATGC,-0.165
22,ATCCGACC,-0.0494
23,ATCAGTAG,-0.0362
24,ACCCCATC,0.177
25,ACAGTTGA,-0.0789

row,Sequence,PBM E-score
1,CATGGACC,-0.00589
2,ACTGCGCA,-0.0699
3,AATTACTG,0.00477
4,AGGTAAAG,0.127
5,CCCATAAC,0.355
6,AGTTTATA,0.0659
7,ATGGCGTC,-0.12
8,CCATGTCG,0.00875
9,AGCTTCCG,-0.126
10,CGAATTAA,0.193
11,AAACGTGC,-0.305
12,ACAAGCCC,-0.177
13,CCGGACCA,-0.0801
14,AAGTATAT,0.00838
15,ACTTGCGA,0.0666
16,AGCCGGAG,-0.0774
17,AGGATCGA,-0.113
18,ACAGGCAT,-0.162
19,CCTGAACC,0.213
20,GTATACAC,-0.00689
21,GGCAGCCC,-0.00401
22,CCATGTCA,-0.233
23,GAAGGCAC,0.00101
24,CTTAGTGC,-0.0751
25,GGGGACAC,-0.0745

row,Sequence,PBM E-score
1,CCTTGGAC,0.0187
2,AGCAAGCG,-0.192
3,GTTGCGCA,-0.0415
4,ATTCCGTC,-0.213
5,GTGTCCGA,-0.0643
6,AAGACCTT,0.285
7,TGTCCAAA,0.137
8,AGGAGGAT,-0.304
9,GGGGGTGA,-0.167
10,AACCCACT,0.295
11,CACCGGGC,0.103
12,AAGCCTAC,-0.0465
13,GTTAAAAA,0.285
14,ATCAATTC,-0.0949
15,CCCGCTTC,-0.134
16,CCAGCGAG,0.092
17,ACCAGCCT,-0.171
18,GCTTGTCC,-0.127
19,CTTGGAAA,0.0337
20,CACGACCA,0.161
21,CTACCTGC,0.01
22,ATCCGAGA,-0.0307
